Laboratory results: the supplement of paper PMC3334620
Over roughly 33,000 sequences, “E-score (-0.5 to 0.5)” has its median near -0.054; the highest 2% begin near 0.35. This is one part of the list.

What follows are sequences tested against T1, Stb5 (UniProt P38699) (assay: PBM E-score (8-mer binding enrichment) (E-score (-0.5 to 0.5)); higher = stronger / more preferred TF binding; most listed sequences are background and not binding sites). Details: protein concentration: 200 nM; construct: GST-full length.
T1 sequence: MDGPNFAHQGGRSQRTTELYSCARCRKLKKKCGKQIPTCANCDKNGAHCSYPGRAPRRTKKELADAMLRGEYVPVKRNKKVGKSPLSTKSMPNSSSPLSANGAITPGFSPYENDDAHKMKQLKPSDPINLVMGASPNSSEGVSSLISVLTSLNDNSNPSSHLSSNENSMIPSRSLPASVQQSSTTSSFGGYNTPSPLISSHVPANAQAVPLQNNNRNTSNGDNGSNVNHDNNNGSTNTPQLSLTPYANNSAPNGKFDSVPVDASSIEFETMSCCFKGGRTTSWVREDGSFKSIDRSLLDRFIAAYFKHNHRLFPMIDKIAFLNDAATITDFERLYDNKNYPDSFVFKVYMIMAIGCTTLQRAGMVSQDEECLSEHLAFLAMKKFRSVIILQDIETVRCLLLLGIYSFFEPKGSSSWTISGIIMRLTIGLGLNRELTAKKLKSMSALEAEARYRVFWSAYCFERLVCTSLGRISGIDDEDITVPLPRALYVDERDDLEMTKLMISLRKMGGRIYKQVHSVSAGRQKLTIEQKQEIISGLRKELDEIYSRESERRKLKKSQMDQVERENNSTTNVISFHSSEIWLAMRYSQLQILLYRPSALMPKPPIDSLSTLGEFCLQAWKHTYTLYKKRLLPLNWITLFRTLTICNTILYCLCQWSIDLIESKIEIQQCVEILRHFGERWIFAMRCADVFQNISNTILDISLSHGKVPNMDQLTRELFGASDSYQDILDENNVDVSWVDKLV
Procedure, shortened: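 The E-score, a modified Wilcoxon-Mann-Whitney statistic, was computed by the Universal PBM Analysis Suite for every ungapped eight-base word pooled with its reverse complement. Scans behind it were normalised with masliner after bound GST-tagged yeast transcription factors were detected with fluorescent anti-GST. The proteins, at about 100-200 nM, had been applied to universal all-10-mer Agilent arrays made double-stranded by primer extension.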

Sequence	PBM E-score
ACACGAGC	-0.2
GGATTGCC	0.0199
ATTTAAAT	-0.117
CAAGCATG	-0.252
AATCGGGC	0.209
ACCTTAAT	0.0412
CAATTCAA	-0.261
CTAACGGC	0.135
CGACGGGC	0.308
CATTCGCG	0.0611
TCCGATCA	0.269
GTCAGTGA	-0.0219
CACTACGG	0.138
ACGACGGC	0.146
ACATATAT	0.106
ACTTTGCC	-0.0473
AGTGACGG	0.231
ATTGGACG	-0.107
GTATATAA	-0.0409
AGAGAAAA	-0.0123
CCCTTTGC	-0.017
ATTTCGGC	0.117
CAGCTGCC	-0.0121
AGTGTTTA	-0.0504
AGCCAAGA	-0.223

Sequence	PBM E-score
ATCTAGTC	0.0386
CGTCCTCC	0.0156
AGCTAAAC	-0.0545
CGTTATGA	0.17
AAAACTGT	-0.0231
AAACTTAC	-0.211
AGAGTCGA	-0.174
CTGACGAA	-0.0766
GACGCTAA	-0.0498
GCACTGCA	-0.211
ATGGGATC	-0.119
CCCCACCA	-0.183
ACGGTCCC	0.168
AGCAAACC	-0.183
CGGTCACG	0.149
GCCGGCTA	0.182
GGTATTCA	-0.0311
AGCACTCC	-0.123
CACCTGTC	0.14
ACAGGGCA	-0.142
GTCTTATA	0.0873
CAGATAAG	-0.0793
GCGCTGCA	0.0911
GTCCCGCA	0.164
CTGGAACA	-0.317

Sequence	PBM E-score
CGCGCTGC	0.0623
CCCGCTGC	0.209
AGTCACTC	-0.186
AGTTGATA	-0.0939
GACTCACA	-0.22
CTGAACAG	-0.2
CTCGATCA	-0.259
ACGCGAAA	-0.209
ATTAGGTG	-0.0718
ACAGCTAA	-0.0946
ACCTGGTA	-0.271
ATCATTAG	-0.142
GAACAAGC	-0.0242
ATCATACA	-0.179
GAAAAGCC	0.208
CGCGTGTC	0.0856
TATGGGCA	-0.206
GCGGCCCC	0.212
TGTTTAAA	-0.00468
ATCTGGAC	-0.0763
AGGTCAGG	-0.141
ATTTTAGC	0.0866
GGATTTCA	0.173
CAGATCGC	-0.0396
ATATCCCC	0.395

Sequence	PBM E-score
GGGTCACC	-0.211
AGCGGGAG	0.0448
AGGGCTAC	-0.283
AGCAGCTC	-0.265
ATGGGTCC	0.271
CTTGGTCA	-0.157
GCACGCTA	-0.105
GCGGAAGA	0.0945
CGCTCATC	0.0962
TAAGAGCA	-0.164
GCTTAGAC	-0.00066
ATGAGTGG	-0.101
CCAAGGCC	0.0375
GCGAATCA	-0.0976
CCCCTGGA	-0.155
ACGCGCAT	-0.217
CAATAAAG	0.126
CACGAACA	-0.1
GCGCTCCC	-0.119
CGCCGGGA	0.236
CATGTATA	-0.127
TCCTGGCA	-0.145
ATGTTTGA	-0.0704
ATAACGTA	0.0409
ATGCTGTG	-0.178

Sequence	PBM E-score
ACCAACCG	-0.00342
GCGAGGCC	-0.044
GACCAGAA	-0.2
GGGCCTTA	0.213
GCCGGGCC	0.172
ACGAATAA	0.0965
TCCTTGCA	-0.0028
AGCCCCCA	-0.2
GTTTCGAA	-0.0651
AGGTCTCG	-0.207
GCAGAACA	-0.0997
GTACGAAC	0.09
AGATATCC	0.045
AAATGATT	-0.0998
ATGTCAGA	-0.247
ACGATCGC	-0.0907
AGCGAACA	-0.0242
CTACTGGA	-0.0154
TCCGTGAA	0.171
CACTTGAG	-0.221
GTAAAGGA	-0.0835
ACCCCCTA	-0.371
AGGGACAA	0.00911
ACTGTGTC	-0.104
AATTAGGG	-0.0274

Sequence	PBM E-score
ACGAACAA	0.0772
CGGGGACG	0.141
AGTGTAAC	-0.175
GAAGAATA	-0.123
CACGCACA	-0.0272
GCCACACA	-0.0106
AGGGAGCC	-0.276
ACAATCAC	-0.129
CAATGGTA	0.0642
CTGGCTAA	-0.156
GCAGGCGC	-0.0165
GCGCACGC	0.133
ATTCGAAC	-0.0642
GTCGGGGA	0.382
GACTCTGA	0.0446
TGGATGAA	-0.203
CGCCCCCG	0.209
ACTTACGC	0.0737
AAGGCCCC	0.191
TGCTCACA	-0.231
AGTGTTTC	-0.215
AGTTGAAC	-0.182
AAGAATAC	-0.0805
ATACTCGG	0.134
GACAATTA	0.0266

Sequence	PBM E-score
ACGAGGCG	0.0576
CCGAGGAG	0.0924
CGGAGTAG	0.242
AGATAGCT	-0.0482
ACCCACTG	-0.00286
CAGTACCC	-0.102
GGCGTTCA	0.072
ACCTAAAA	0.0964
TATACAGA	-0.138
CGCATACA	0.0776
GCGGTAGA	0.193
ACTCTTAT	-0.042
CATCGCAC	0.111
TCAGGACA	-0.152
CGCGTCTC	0.0131
GACCGTTA	0.278
TAGTACGA	-0.0716
TATAGTAA	-0.111
CCCCCCTC	-0.345
AAGCGCAT	-0.161
CGAGTCGC	0.00915
ACCAATTA	-0.0905
GACAACAC	-0.0174
CGTGACGA	0.0457
TCCCGCAA	0.0958

Sequence	PBM E-score
ACACTACA	-0.149
GGAGTTGA	0.0402
ACGGAGGC	0.172
GATCACGC	-0.183
ACGAATAG	-0.207
CTCCTAGC	-0.184
CCAGTAGG	-0.0926
TATTACCA	0.0377
ACTCTCCG	0.0916
TCTCGGCA	0.12
CCCCTTAA	-0.0771
ACACATAA	-0.068
GCACGCAC	0.00442
AACGGGAG	0.137
TCACGCGA	-0.0286
AAGCTGCT	-0.182
TAGACGGA	0.202
GAGCTTTA	0.0494
GCGGGACC	0.237
CCTCGAGA	-0.223
ACCTCACT	0.00558
ACACGTAG	-0.15
CGGTAGGC	0.162
GTGGCTTA	-0.171
CTTCCAAC	-0.12

Sequence	PBM E-score
CGCAGTCC	0.0154
GAGGCTTA	-0.203
CGTAGCAA	-0.201
AGTGTACA	-0.174
AGGGGAGA	-0.196
TTTTAAAA	0.242
GCGGAATA	0.138
GCATGAAC	0.0263
CGGCGTTC	0.342
CCCGACGA	0.31
ATTGATAA	-0.248
CCTAGTAG	-0.143
CCTGGTAA	-0.226
CAGATGGG	-0.282
ACCATCGT	-0.0656
ACCGAATA	0.0403
CAAGACGG	0.125
GTCCCGGA	0.258
CACCATGC	0.0199
GAGTTTTA	0.172
AGCACAAA	-0.177
ATAATTAG	0.0459
ACCATGTG	-0.113
AAAGCGTC	-0.0832
TCCCATCA	-0.11

Sequence	PBM E-score
GCGTGGAA	-0.0902
GTACAAAC	0.0439
TATGGTAA	-0.0663
GGCATGTA	-0.11
CCAGACCG	0.161
CATCCACC	-0.0273
GTAAGAAA	0.0351
AACGAGTC	-0.219
AGCCTCGC	-0.0812
AGCATTGG	-0.164
CATAACCA	-0.25
ATTAGTGA	0.00773
GTGAGTCA	-0.176
AGCCCGGC	0.284
CCCACAGC	-0.146
AAAGTACT	-0.0364
GAGACTCC	0.0906
CGCTGTCC	0.121
CAAAAGTG	-0.0942
AGGAGAGA	-0.133
GTCAAGTA	-0.184
CGAAAGTC	0.0398
CACTGCGC	-0.108
AAAGAGTG	-0.173
AGTAAAAG	-0.0967

Sequence	PBM E-score
GTCCACTA	-0.0867
AACCCAGG	-0.233
ATTGCGAA	0.0132
AGTCGGTA	0.36
ACTCTACC	-0.0317
TGGAAGAA	-0.0838
ATCATGCC	0.0134
GGTGGTAA	0.248
AGTGCTGC	-0.18
CAGTTATC	0.0128
CAGGTTAA	-0.0457
AAACTCTA	-0.134
CTATGAGA	-0.27
AAAATCTA	-0.0323
ATGATGGC	-0.19
AGCTACAA	-0.165
ACGAGAGA	-0.0989
ATTCAGTC	0.0107
AAAATAGA	0.0979
AAATCACA	-0.128
AGCGGCCA	0.177
CGATCCCC	0.131
CCCGTGCC	0.221
GATGCTAC	-0.0969
AATGAAAT	0.0804

Sequence	PBM E-score
AACTCGGT	0.153
AAAAAGAA	0.175
GCTCTACC	-0.0504
AACATTGT	-0.0384
AGTATCCC	0.0337
TCTCTGAA	-0.102
ATAGAATC	0.175
AATTACGG	0.165
ACATGATG	-0.271
GTTTTTAA	0.154
AACCCATA	-0.291
ACCGTCGG	0.392
ATCGCCGG	0.368
GCTCCACC	0.071
ACCCCTCG	-0.115
AGTGACTG	-0.215
AGCTCAAC	-0.199
ACGGTTAT	0.169
CAATGAGA	-0.173
ACCGTCCT	0.111
CCTTGGAG	-0.102
AACGATTG	-0.156
ACCAGGTA	-0.0151
AAATTGGA	-0.0453
AGGTAGTG	-0.043

Sequence	PBM E-score
GAGAAACA	0.0306
CGGAGGGA	0.14
ATCCCTAA	-0.0887
CGGCCAAC	0.0563
AAAGCCGC	0.365
GCAGCGGC	0.307
GAGTGTGA	-0.27
CACACGTA	-0.275
CCGTTGCG	0.231
AGATAGTC	-0.0403
AAAAGGTT	-0.238
ATTCATCC	0.0809
CAGTGATC	-0.138
CCATAATA	-0.0622
CCCTGAGG	-0.172
TCTAGAGA	-0.368
CGTATTAG	-0.0307
GCGGGAAA	0.27
GAATTACA	0.076
ATGTCGGA	0.303
AGATCGAA	-0.212
GGCTGAAA	0.0322
CTCTCGCC	-0.152
AGTGGCCG	0.108
CGTGACCC	-0.0922

Sequence	PBM E-score
GTTTCTTA	0.00445
CCCATCGC	-0.028
AGCCCATA	-0.139
GACTGTGA	-0.114
AGGATTCC	-0.222
CTAGATGC	-0.205
AGCTCTTA	-0.113
CCATCTCC	-0.0375
GGCCGCCA	0.141
AGGAACCT	-0.115
ACTCGCTC	-0.333
ATAGGCAA	-0.235
ATGTTATA	0.0488
CTCAGGAA	-0.0964
GATTAGGA	0.0582
CTGAGACA	-0.214
TTAAGCAA	-0.139
AGTTTAAG	-0.0387
ATCCAGTG	-0.14
